Data as given in PubChem BioAssay AID1845217 (Molecular Pharmacology Branch, DTP, NCI, 2023).
Certain results were filed several times, with different values. The other results are left out here. There may be further records. Results that share an entry are repeated measurements across runs, samples, wells, individuals or studies. Signs of the kind (2×) stand for listed records that agree.

Tested on: VA-ES-BJ tumor spheroid viability
Assay: Anticancer human tumor VA-ES-BJ cell line growth inhibition;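 also: spheroids exposed to compounds for seven days; percent of DMSO vehicle control viability so 100% = untreated growth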
Conditions: stronger effect = lower value, spheroids with HUVEC and MSC
Source text: Multicellular complex tumor spheroid response to DNA repair inhibitors in combination with DNA-damaging drugs
This study explores the anticancer activities of DNA-damaging drugs and inhibitors of DNA damage repair, both as single agents and in combinations. Complex tumor spheroids comprised of malignant cells, endothelial cells and mesenchymal stem cells served as an in vitro model for human solid tumors. This model system incorporates physiologically relevant features and patient-derived or established malignant cell lines with clinically relevant genetic alterations from many tumor types. Twenty-six patient-derived or established malignant cell lines were evaluated representing sarcoma, melanoma, small cell lung cancer (SCLC), non-small cell lung cancer (NSCLC), as well as bladder, ovarian and pancreatic cancers. The concentration ranges selected for each drug and investigational agent were based upon clinically achievable concentrations if the clinical Cmax of the agent was known.
Compounds. The drugs and compounds olaparib (NSC753686), talazoparib (NSC767125), berzosertib (NSC777718), elimusertib (NSC800525), nedisertib (NSC802822), VX-984 (NSC792969), AZD-1390 (NSC803789), temozolomide (NSC362856), topotecan (NSC609699), trabectedin (NSC813783), staurosporine (NSC755774), and gemcitabine (NSC613327) were obtained from the National Cancer Institute (NCI) Developmental Therapeutics Program Chemical Repository. The FDA-approved anticancer drug set is available from the Developmental Therapeutics Program at https://dtp.cancer.gov/organization/dscb/obtaining/available_plates.htm. […] The stock solutions were prepared in dimethyl sulfoxide (DMSO, Sigma-Aldrich, St. Louis, MO, cat. D2650) at 400-fold the tested concentration and stored at -70 degrees C. Prior to their use, the stock solutions were diluted in fresh medium and the final DMSO concentration in the assay was 0.25% (v/v). All drugs and investigational agents were tested over a range starting from a high concentration at or near the clinical Cmax and decreasing in half-log increments. If the clinical Cmax for an agent had not been determined, the highest concentration tested was 10 microM.
Cell Lines. The patient-derived cancer cell (PDC) lines: 156681-154-R-J1-PDC, 283228-195-R-J1-PDC, 287954-098-R-J1-PDC, 292921-168-R-J2-PDC, 349418-098-R-PDC, 425362-245-T-J1-PDC, 556581-035-R-J1-PDC, and BL0293-F563-PDC were received from the NCI Patient-Derived Models Repository (PDMR, https://pdmr.cancer.gov). The established cell lines HS-SY-2 (RRID:CVCL_8719), MPNST, and SYO-1 (RRID:CVCL_7146) were obtained from the Sloan Kettering Institute. The alveolar soft parts sarcoma cell line ASPS-1 (RRID:CVCL_S738) was established at the NCI and grown from internal seed stocks. The following established cell lines were purchased from the American Type Culture Collection (ATCC, Manassas, VA): G-401 (ATCC, cat. CRL-1441, RRID:CVCL_0270), SW982 (ATCC, cat. HTB-93, RRID:CVCL_1734), VA-ES-BJ (ATCC, cat. CRL-2138, RRID:CVCL_1785), NCI-H719 (ATCC, cat. CRL-5837, RRID:CVCL_1582), NCI-H196 (ATCC, cat. CRL-5823, RRID:CVCL_1509), NCI-H841 (ATCC, cat. CRL-5845, RRID:CVCL_1595), NCI-H1618 (ATCC, cat. CRL-5879, RRID:CVCL_1480), NCI-H1876 (ATCC, cat. CRL-5902, RRID:CVCL_1503), DMS 114 (ATCC, cat. CRL-2066; RRID:CVCL_1174), NCI-H211 (ATCC, cat. CRL-5824; RRID:CVCL_1529), and SW 1271 (ATCC, cat. CRL-2177, RRID:CVCL_1716). The small cell lung cancer cell line COR-L88 was purchased from Sigma-Aldrich (cat. 92031917-1VL, RRID:CVCL_1141). The non-small cell lung cancer cell lines NCI-H226 (RRID:CVCL_1544) and NCI-H322M (RRID:CVCL_1557) were established at the NCI and grown from internal seed stocks. Pooled donor human umbilical vein endothelial cells (HUVEC, Lonza, cat. CC-2519) and human mesenchymal stem cells (hMSC, Lonza, cat. PT-2501) were purchased from Lonza (Walkersville, MD).
Cell Culture. All cells were maintained in an incubator at 37 degrees C and 5% CO2 with 95% humidity. […]

Q: With `CC1COCCN1c1cc(-c2ccnn2C)c2ccnc(-c3ccn[nH]3)c2n1` (configuration not stated) as the compound, how does the viability, T/C (compound alone 0.1 µM) read?
A: 52.2%, 61.5%, 6.72%

Q: `COc1cc2c(cc1O)CCNC21CSC2c3c(OC(C)=O)c(C)c4c(c3C(COC1=O)N1C(O)C3Cc5cc(C)c(OC)c(O)c5C(C21)N3C)OCO4` (configuration not stated) was tested. Which viability, T/C (compound 30 pM) did it give?
A: 99.5, 98.7, 99.4, 96.4, 104, 85.6 (2×), 92.6, 133, 81.8%

Q: What about the viability, T/C (compound 94.9 pM) of the same compound?
A: 94.2, 96.3, 93.4, 96.8, 95.7, 83.4, 77.8, 72.3, 124, 82.2%

Q: What about the viability, T/C (compound alone 0.0003 µM) of the same compound?
A: 42.2, 46.8, 48.8, 52.3, 42.9, 38.6, 36.6, 44.2, 60.5, 35.2%

Q: With `Cn1nnc2c(C(N)=O)ncn2c1=O` as the compound, how does the viability, T/C (compound alone 31.6 µM) read?
A: 107 (2×), 92.3, 99.8, 116, 108, 89.5, 103, 88, 96.1%

Q: What does the source list for `CC[C@@]1(O)C(=O)OCc2c1cc1n(c2=O)Cc2cc3c(CN(C)C)c(O)ccc3nc2-1`?
A: viability, T/C (compound alone 0.00949 µM): 68.5, 74.6, 91.1, 86.5, 81.2, 89.3, 94.5, 92.1, 99.9, 92.8%; viability, T/C (compound alone 0.03 µM): 24.1, 35.7, 47.8, 39.7, 38, 50, 52.7, 48.1, 45.4, 44.3%
